The record followed here is paper PMC4336329 (PLoS ONE, 2015).

The whole screen tested about 310,000 compounds, of which about 14,000 (4.5%) showed an effect of 50% or more. Effects have a minus sign here. Some of the results follow. Where a SMILES comes first, the peptide text is derived from it. [ ]: non-standard residue; d: D form. The star is where a group is joined. ξ: configuration not given here. ξF = NC(Cc1ccccc1)C(=O)O; Cbz = O=C(OCc1ccccc1)*
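Also: peak tail current of the secondary pulse compared with the same well before compound.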

human ether-à-go-go-related gene (hERG) potassium channel, sequence (Q12809 whole entry, looked up): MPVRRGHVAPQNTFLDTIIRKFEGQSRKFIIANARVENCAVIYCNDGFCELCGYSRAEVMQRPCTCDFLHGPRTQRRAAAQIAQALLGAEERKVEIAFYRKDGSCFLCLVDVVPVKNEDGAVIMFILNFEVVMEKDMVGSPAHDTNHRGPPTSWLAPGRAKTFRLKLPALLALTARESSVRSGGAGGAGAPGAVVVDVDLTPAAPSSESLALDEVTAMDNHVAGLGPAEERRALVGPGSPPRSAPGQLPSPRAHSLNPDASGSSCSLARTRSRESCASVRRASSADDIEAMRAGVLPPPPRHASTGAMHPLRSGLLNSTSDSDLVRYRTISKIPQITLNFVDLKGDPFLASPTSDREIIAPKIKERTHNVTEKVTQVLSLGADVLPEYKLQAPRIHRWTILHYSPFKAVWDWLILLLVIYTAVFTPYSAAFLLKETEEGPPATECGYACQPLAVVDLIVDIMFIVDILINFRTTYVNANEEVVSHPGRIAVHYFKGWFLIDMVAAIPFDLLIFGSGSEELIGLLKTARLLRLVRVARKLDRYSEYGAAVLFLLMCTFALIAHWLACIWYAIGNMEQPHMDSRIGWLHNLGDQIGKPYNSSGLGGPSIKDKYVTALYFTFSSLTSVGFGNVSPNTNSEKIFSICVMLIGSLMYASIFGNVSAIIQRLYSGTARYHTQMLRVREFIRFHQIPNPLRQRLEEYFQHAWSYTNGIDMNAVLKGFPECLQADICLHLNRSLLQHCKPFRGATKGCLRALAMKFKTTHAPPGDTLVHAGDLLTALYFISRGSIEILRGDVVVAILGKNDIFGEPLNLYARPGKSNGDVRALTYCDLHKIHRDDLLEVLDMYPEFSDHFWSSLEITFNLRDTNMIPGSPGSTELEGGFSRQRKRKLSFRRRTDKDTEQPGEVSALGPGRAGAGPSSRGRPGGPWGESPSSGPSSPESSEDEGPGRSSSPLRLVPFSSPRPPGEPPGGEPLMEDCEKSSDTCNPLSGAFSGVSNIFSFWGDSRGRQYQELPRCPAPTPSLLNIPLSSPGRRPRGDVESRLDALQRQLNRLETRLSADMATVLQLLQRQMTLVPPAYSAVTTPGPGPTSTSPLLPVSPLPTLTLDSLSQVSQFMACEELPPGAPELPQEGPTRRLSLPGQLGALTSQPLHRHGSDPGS

The assay concerns the target human ether-à-go-go-related gene (hERG) potassium channel (human, UniProt Q12809). Put plainly: primary screen, population patch clamp on CHO cells stably expressing hERG.
In the case of `O=C(Nc1ccc(Cl)c(C(F)(F)F)c1)N1CCCC(O)C1` (centres unmarked), the “hERG current change (%, negative = inhibition) at 10uM” value is 10.9%.
On to `COc1cccc(C(=O)Nc2ccc(C(=O)NCC3CCCO3)cc2)c1` (centres unmarked), for which the “hERG current change (%, negative = inhibition) at 10uM” value is on record as 9.5%.
Take `O=C(O)c1cccc(C(=O)O)c1Br`: the “hERG current change (%, negative = inhibition) at 10uM” value turned out to be 7.35%.
On to `Brc1cccc(OCCN2CCc3ccccc3C2)c1.Cl`, for which the “hERG current change (%, negative = inhibition) at 10uM” value is -5.84%.
Consider `Oc1ccc[n+](CC(O)c2ccccc2)c1.[Br-]` (centres unmarked), for which the “hERG current change (%, negative = inhibition) at 10uM” value amounted to 18.7%.
With `Cc1cc(OCC(=O)NCc2ccncc2)c2c3c(c(=O)oc2c1)CCC3` the figure was -10.3%; with `Cc1ccccc1Nc1nnc(C)c(=O)n1N`, -0.0645%.
On to `COc1cc(-c2nnc(-c3ccncc3)o2)ccc1OCc1ccccc1`, for which the “hERG current change (%, negative = inhibition) at 10uM” value worked out at 4.05%.
With `Cc1ccc(S(=O)(=O)N2CCOCC2)cc1NC(=O)Cn1cc(C(F)(F)F)cc(Cl)c1=O` the figure was 10.1%; with `CC1=C(OC(=O)c2ccccc2)C(C)(C)C(c2ccccc2)OC1=O` (centres unmarked), -5.7%.
On to `COCCNC(=O)c1ccccc1NC(=O)c1ccccc1N(C)S(C)(=O)=O`, for which the “hERG current change (%, negative = inhibition) at 10uM” value came out at 20.6%.
As for `CC(C)c1nc(NCCO)c(C#N)c2c1CCCC2`, the “hERG current change (%, negative = inhibition) at 10uM” value is listed as -7.11%.
As to `COCc1[nH]nc2c1C(c1ccsc1)C(C#N)=C(N)O2` (centres unmarked), the “hERG current change (%, negative = inhibition) at 10uM” value is 10.9%.
The value for `CN(C)S(=O)(=O)c1ccc(Cl)c(NC(=O)COc2ccccc2[N+](=O)[O-])c1` was -13.1%; that for `c1ccc(OCCSc2nc3ccccc3[nH]2)cc1` was 6.94%.
With `Cn1nc(-c2ccccc2)cc1NC(=O)c1ccc(Cl)cc1` the figure was -9%; with `COc1ccc(NC(=O)Nc2nnc(C(C)(C)C)s2)cc1`, -18.8%.
With `Cc1cc(C(=O)CN2C(=O)c3ccccc3C2=O)c(C)n1C1CC1`, the “hERG current change (%, negative = inhibition) at 10uM” value was -1.31%.
With `CCOC(=O)N1CCN(S(=O)(=O)c2cc(Br)cc3c2N(C(=O)C2CC2)CC3)CC1` the figure was 3.54%; with `NS(=O)(=O)c1ccc(CCNC(=O)c2cc3ccccc3s2)cc1`, 16.9%; with `CCc1noc(C)c1C(=O)N1CCCSC1=Nc1ccccc1C(C)C`, 0.786%.
With `COc1ccc(CNC(=O)COC(=O)CCc2nc3ccccc3c(=O)[nH]2)cc1` the figure was 22.5%; with `CC1(C)CCC(=O)N2CC[C@H]3C[C@H](OC(=O)Nc4ccccc4)C[C@@H]1[C@H]32`, -11.9%; with `O=C(Nc1ccc(F)cc1)Nc1ccc([N+](=O)[O-])cn1`, 13.5%.
Regarding `CC(C)n1nccc1NC(=O)Nc1ccccc1`, the “hERG current change (%, negative = inhibition) at 10uM” value was 23.7%.
As for `O=C(C1CCCN(Cc2ccccc2F)C1)N1CCCCC1.O=C(O)C(=O)O` (centres unmarked), the “hERG current change (%, negative = inhibition) at 10uM” value worked out at 8.62%.
Turning to `C=C1CSc2nc(=O)c3c4c(sc3n21)CCCC4`, the “hERG current change (%, negative = inhibition) at 10uM” value is listed as -35%.
`CCOC(=O)C1CCCN(S(=O)(=O)c2ccc(S(=O)(=O)N(CC)CC)cc2)C1` (centres unmarked): the “hERG current change (%, negative = inhibition) at 10uM” value is reported as -30.4%.
With `Cc1cccc(CS(=O)(=O)Cc2ccc(C(=O)NCc3cccnc3)o2)c1` the figure was -3.42%; with `CC1(C)CC(=O)C2=C(C1)Oc1nc3ccccc3cc1C2C(C#N)C#N` (centres unmarked), 15.1%; with `COc1cccc(C(C2=C(O)CC(C)(C)CC2=O)C2C(=O)CC(C)(C)CC2=O)c1` (centres unmarked), 15.3%.
For `CC(C)N(C(=O)Cn1c(-c2cccnc2)ccc(C#N)c1=O)C(C)C`, the “hERG current change (%, negative = inhibition) at 10uM” value came to 6.41%.
On to `Cc1ccc(NC(=O)C2CCCN2C(=O)NC2CCCCC2)cc1F` (centres unmarked), for which the “hERG current change (%, negative = inhibition) at 10uM” value was found to be 1.22%.
With `Cc1ccc2nc(CSc3nnc(Nc4ccccc4F)s3)cc(=O)n2c1` the figure was -31.6%.
The value for `NC(=O)C1(N2CCCCC2)CCN(S(=O)(=O)c2ccc(Cl)s2)CC1` was -42.2%.
The value for `Cc1cc(C(=O)CSc2nnc(C3COc4ccccc4O3)n2C)c(C)n1-c1ccc(F)cc1` (centres unmarked) was -4.9%; that for `O=C(Cc1ccccc1F)Nc1cccc2cccnc12` was -9.77%.
With `CCc1nc(SCC(=O)c2cccs2)c2oc3ccccc3c2n1`, the “hERG current change (%, negative = inhibition) at 10uM” value turned out to be 22.7%.
With `CCn1c(O)c(N=Nc2ccc(S(=O)(=O)N3CCOCC3)cc2)c(=O)n(CC)c1=S` the figure was -2.36%.
As to `Cn1cccc1/C=N/n1c(-c2ccc(Cl)cc2Cl)n[nH]c1=S`, the “hERG current change (%, negative = inhibition) at 10uM” value is recorded as 1.87%.
With `Cc1onc(-c2c(Cl)cccc2Cl)c1C(=O)N1CCN(c2ncccn2)CC1` the figure was -3.56%.
In the case of `C=CCn1c(CCCNC(=O)CCC)nc2ccccc21`, the “hERG current change (%, negative = inhibition) at 10uM” value is reported as -4.6%.
With `CCCC(=O)N1CCN(c2nnc(-c3ccccc3)c3ccccc23)CC1` the figure was -45.4%; with `CCSc1nnc(NC(=O)c2nn(C(C)C)c(=O)c3ccccc23)s1`, -24.7%; with `Cc1ccc(-c2csc3nc(C)n(-n4cccc4)c(=O)c23)o1`, -7.17%.
With `COc1ccc(N(CC(=O)Nc2cc(OC)ccc2OC)S(=O)(=O)c2c(C)noc2C)cc1` the figure was 3.98%.
With `Cc1ccc(S(=O)(=O)N2CCN(C(=O)c3ccc(Cl)nc3)CC2)cc1`, the “hERG current change (%, negative = inhibition) at 10uM” value is on record as 2.73%.
The value for `Cc1ccc(SC2=C(C(=O)O)CCCC2)cc1` was 4.25%; that for `O=C1C2C3C=CC(C3)C2C(=O)N1/N=C/c1cc(Br)cc([N+](=O)[O-])c1O` (centres unmarked) was -1.76%.
With `COc1ccc(NC(=S)NNC(=O)c2ccccc2OC(F)F)cc1` the figure was -2.29%.
`CC1(C)CC(=O)c2sc(N3CCCCC3)nc2C1`: the “hERG current change (%, negative = inhibition) at 10uM” value is listed as -2.83%.
The value for `COc1ccccc1-c1cc(C(=O)NC(C)C)no1` was -8.87%.
With `CCCCCN(C(=O)CCC(=O)OCC(=O)N(CC#N)c1ccccc1)c1c(N)n(CCCC)c(=O)[nH]c1=O` the figure was -0.196%; with `COc1cccc(-c2nc(CS(=O)CC(=O)NCCc3ccc(C)cc3)c(C)o2)c1` (centres unmarked), 7.55%.
Turning to `Cc1ccc(OCCc2csc(N)n2)cc1`, the “hERG current change (%, negative = inhibition) at 10uM” value was 20.5%.
With `COC(=O)c1ccc(COc2ccc(/C=N/O)cc2)o1` the figure was -11.1%.
With `CCn1c(SCC(=O)Nc2nc3c(s2)CCCC3)nnc1-c1ccccc1` the figure was -56.2%.
With `Cc1cccc(NC(=O)c2ccc(CN3CCN(Cc4ccccc4)CC3)cc2)c1` the figure was -80.3%; with `Cn1c(=O)cc(Cl)[nH]c1=O`, 24.3%.
Turning to `CCn1c(SCC(=O)NCc2ccco2)nnc1-c1c[nH]c2ccccc12`, the “hERG current change (%, negative = inhibition) at 10uM” value was 6.17%.
For `C=CCn1c(-c2oc3nc(-c4ccccc4)cc(-c4ccccc4)c3c2N)n[nH]c1=S`, the “hERG current change (%, negative = inhibition) at 10uM” value is listed as -2.49%.
With `COc1ccc(NC(=O)Cc2nnc(SCC(=O)NC3=NCCS3)n2C)cc1` the figure was -7%.
As to `CC1(C)Cc2ccccc2-c2nnc(SCC(=O)N3CCc4ccccc43)n21`, the “hERG current change (%, negative = inhibition) at 10uM” value came to 5.65%.
With `O=C(CCc1ccccc1)Nc1ccc2c(c1)OCO2` the figure was 19.3%.
The value for `Cc1ccc(CN(C)C(=O)COC(=O)CSc2cc(C)c3ccccc3n2)cc1` was 9.84%; that for `CC12CCC(C/C1=N\N=C1\NC(=O)/C(=C\c3cccc(Br)c3)S1)C2(C)C` (centres unmarked) was 12.3%.
`C[N+]1(C)[C@@H]2CC[C@H]1CC(OC(=O)C(CO)c1ccccc1)C2.O=[N+]([O-])[O-]` (some centres unmarked): the “hERG current change (%, negative = inhibition) at 10uM” value is given as 13.4%.
The value for `O=Cc1c(NCc2ccccc2)c2ccccc2[nH]c1=O` was 10%; that for `O=C(O)CNC(=O)C(Cc1ccccc1)NC(=O)OCc1ccccc1` (centres unmarked) (Cbz-[ξF]-Gly-OH) was 16.3%; that for `CC(C)N(C(=O)Cn1cnc2cc([N+](=O)[O-])ccc2c1=O)C(C)C` was 7.76%.
`CCOc1cc(N2CCOCC2)c(OCC)cc1NS(=O)(=O)c1cc(NC(C)=O)ccc1OC`: the “hERG current change (%, negative = inhibition) at 10uM” value turned out to be 2.07%.
Take `O=C(Nc1ccccc1-c1nc2ccccc2s1)C1=COCCO1`: the “hERG current change (%, negative = inhibition) at 10uM” value came to 0.377%.
The value for `CCC(C(=O)NC1CCCCC1)n1c2ccccc2c2nc(=O)cc(C)n21` (centres unmarked) was 10.4%; that for `COc1ccc(CNC(=O)CSc2nc3cccnc3s2)cc1` was -8.21%; that for `CCc1cc(=O)oc2cc(C)cc(OCC(=O)NCC(O)c3ccccc3)c12` (centres unmarked) was -1.76%.
Consider `O=C(c1n[nH]c(=O)c2ccccc12)N1CCN(S(=O)(=O)c2ccccc2Cl)CC1`, for which the “hERG current change (%, negative = inhibition) at 10uM” value is listed as -19.9%.
With `COc1ccc(OC(=O)c2cnn(-c3ccccc3)c2C)cc1` the figure was 17.3%.
With `O=C(CCSc1ccccc1)N1CCN(C(=O)c2ccco2)CC1` the figure was -23.6%; with `CCN(CC)CCNC(=O)C1c2ccccc2C(=O)N(CCOC)C1c1ccc(F)cc1` (centres unmarked), 12.2%.
With `COC(=O)CCC(=O)Oc1ccc(OC(=O)CCC(=O)OC)cc1` the figure was 10.5%.
On to `N#Cc1ccc(NCC(=O)N2CCN(S(=O)(=O)c3ccccc3)CC2)cc1`, for which the “hERG current change (%, negative = inhibition) at 10uM” value is -70.2%.
`COc1ccc(CCC(=O)N/N=C(\C)c2ccc3c(c2)OCO3)cc1`: the “hERG current change (%, negative = inhibition) at 10uM” value came out at 9.45%.
With `C=C(C)CSCc1nc2ccccc2[nH]1` the figure was 11.1%; with `O=C(C=C1CCN(c2ncc(C(F)(F)F)cc2Cl)CC1)NNC(=O)Nc1ccccc1`, -4.13%; with `COC(=O)c1cc(Cl)c(N)cc1OC`, -8.14%.
With `CN(Cc1nccn1C)C(=O)CC1C(=O)NCCN1Cc1ccc(F)cc1Cl` (centres unmarked) the figure was -68.9%; with `Cn1cccc1C(=O)NC(=O)COC(=O)CNS(=O)(=O)c1ccc(Br)cc1`, -3.81%.
For `COc1ccc(CCNC(=O)CSc2nnnn2-c2ccccc2OC)cc1OC`, the “hERG current change (%, negative = inhibition) at 10uM” value is on record as -0.607%.
With `CCOc1ccccc1NC(=O)c1cc(=O)c2ccccc2o1` the figure was 20.8%.
